Results from PubChem BioAssay AID504845 (National Center for Advancing Translational Sciences (NCATS), 2011).
Out of some 390,000 compounds screened, about 150 (0.038%) were called active. The shares of active, inactive and inconclusive entries below differ from those in the screen. The call rests on the fitted dose curve; in most records, active means well fitted inhibition curve with a large enough effect; inconclusive means small, poorly fitted or top-dose-only effect; inactive means no such curve, though single readings can be large or run the other way. Where the call is inconclusive, the potency comes from a doubtful curve fit.

Target: Regulator of G-protein signaling 4 (Homo sapiens) (UniProt P49798)
Experiment: Inhibitors of Regulator of G Protein Signaling (RGS) 4: qHTS; further: nearly all actives have a fitted effect of over 75% in size
Conditions: Transcreener GDP fluorescence polarization, RGS4-accelerated GTP hydrolysis; series mostly up to 114 µM; activity change, negative = inhibition: at the top concentration
In short: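 MLSMR compounds (23 nl, pin-transferred) preincubated 10 min at room temperature with a 500nM (2x) first reagent, then RGS4 at 900nM (2x) plus Transcreener GDP mix added; fluorescence polarization (620/688 nm) read before and after 90 min at 30 °C.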
On the % scale 0 is the no-effect control and ±100 the full control effect; potency means the concentration at half of the fitted maximal effect; tags describe the fitted curve by direction and shape.

Chain of UniProt P49798 (P49798 whole entry, looked up): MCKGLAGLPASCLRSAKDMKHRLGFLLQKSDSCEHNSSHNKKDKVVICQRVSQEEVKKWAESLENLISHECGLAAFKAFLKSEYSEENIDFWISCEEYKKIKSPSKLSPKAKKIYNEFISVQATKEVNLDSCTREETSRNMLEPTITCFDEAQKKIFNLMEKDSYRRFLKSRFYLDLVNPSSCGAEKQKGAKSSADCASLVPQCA

| Structure (SMILES) | activity change, negative = inhibition | Potency |
| --- | --- | --- |
| COCCNC(=O)COCc1cc(-c2ccc3c(c2)OCO3)on1 | inactive: -6.28% |  |
| CC(=O)Oc1ccc2c(=O)c(Oc3ccccc3)c(C)oc2c1OC(C)=O |  | inconclusive: 100 µM [inhibitor, partial curve, poor fit] |
| COc1ccc(CCNC(=O)CN(c2cc(OC)ccc2OC)S(=O)(=O)c2ccccc2)cc1 |  | inconclusive: 50.1 µM [inhibitor, single point] |
| CCCn1c(N)c(C(=O)CSc2ncn[nH]2)c(=O)n(C)c1=O | inactive: -10.1% |  |
| CCOc1ccccc1NC(=O)c1c(NCc2sccc2C)sc2c1CCCCC2 |  | inconclusive: 70.8 µM [inhibitor, partial curve, poor fit] |
| CCOc1ccc(C2NC(=O)C(C#N)=C(S)N2c2ccc(C)cc2)cc1OC (centres undefined) |  | inconclusive: 50.1 µM [inhibitor, partial curve, poor fit] |
| CSc1ccc2nnc(-c3ccc(C)cc3)n2n1 | inactive: -4.55% |  |
| COc1cccc(-c2sc3ccc(OC)cc3c2C#CC(C)(C)O)c1 | inactive: -14.2% |  |
| CCOc1ccc(CCNC(=O)COC(=O)c2ccc(Cl)nc2)cc1OCC |  | inconclusive: 89.1 µM [inhibitor, single point] |
| Cc1ccc(NC(=O)CN(C(=O)N2CCN(C)CC2)S(=O)(=O)c2ccc(C)cc2)cc1 |  | inconclusive: 100 µM [inhibitor, partial curve, poor fit] |
| COc1ccc(CNC(=O)C[C@H]2C(=O)N(C3CCCCC3)C[C@@H]2Cc2ccccc2)cc1 |  | inconclusive: 79.4 µM [inhibitor, partial curve, poor fit] |
| C/C=C1\COC(C(=O)NCCCN2CCCC2=O)(C(F)(F)F)C=C1C=C(C)C (centres undefined) |  | inconclusive: 50.1 µM [inhibitor, partial curve, poor fit] |
| CC(CN1c2ccccc2Sc2ccccc21)N(C)C (centres undefined) |  | inconclusive: 23.8 µM [inhibitor, single point] |
| COC(=O)c1ccc(C2Nc3ccc(/C(C)=N/NC(=O)C(OC)c4ccccc4)cc3C3C=CCC32)cc1 (centres undefined) |  | inconclusive: 79.4 µM [inhibitor, partial curve, poor fit] |
| O=C(Nc1ccc(C(F)(F)F)cc1)c1ccccc1Br |  | inconclusive: 44.7 µM [inhibitor, partial curve, poor fit] |
| CC(=O)c1ccc(OCC(C)C)c(CC(C(N)=O)C(N)=O)c1 | inactive: -5.14% |  |
| O=C(N/N=C/c1ccc(F)cc1)c1sccc1OCc1ccc(F)cc1 |  | inconclusive: 89.1 µM [inhibitor, single point] |
| Cc1ccc(C(=O)NCCc2cc3ccc(C)c(C)c3[nH]c2=O)cc1[N+](=O)[O-] | inactive: -8.77% |  |
| Oc1ccccc1C1=Nc2ncnn2C(c2ccc(F)cc2)C1 (centres undefined) |  | inconclusive: 56.2 µM [inhibitor, partial curve, poor fit] |
| Cc1cc(=O)oc2c3c(cc(OCC(=O)N4CCC(C(=O)O)CC4)c12)OC(C)(C)CC3 | inactive: 15.2% |  |
| CCn1cc2nc(SCC(=O)Nc3ccccc3C(F)(F)F)n(Cc3ccc(C)cc3)c(=O)c2n1 |  | inconclusive: 35.5 µM [inhibitor, full curve, poor fit] |
| O=C(CCn1c2c(c3ccccc31)CCCC2)NNC(=O)c1ccc(Cl)c([N+](=O)[O-])c1 |  | inconclusive: 89.1 µM [inhibitor, partial curve, poor fit] |

| Structure (SMILES) | activity change, negative = inhibition | Potency |
| --- | --- | --- |
| Oc1cc(O)cc(-c2cc3ccc(O)cc3o2)c1 | inactive: -33.3% |  |
| O=C(O)CN1C(=O)/C(=C/c2ccc(N3CCCCC3)o2)SC1=S |  | inconclusive: 28.2 µM [inhibitor, full curve, poor fit] |
| O=c1c2[nH]c3ccc(F)cc3c2nc2n1CCCS2 | inactive: 6.93% |  |
| S=C(Nc1ccc2[nH]ccc2c1)NC1CCCCC1 | inactive: 25.8% |  |
| Nc1c(N2CCCC2)cc(Cl)c2nonc12 | inactive: -50.2% |  |
| Cc1c(Cl)cccc1NS(=O)(=O)c1ccc2c(c1)C1C=CCC1C(c1ccc(C(=O)O)cc1)N2 (centres undefined) |  | inconclusive: 31.6 µM [inhibitor, full curve, poor fit] |
| Cc1cc(Cl)ccc1OCCCC(=O)NCCN1C(=O)S/C(=C\c2cccnc2)C1=O |  | inconclusive: 89.1 µM [inhibitor, single point] |
| O=C(O)CCC/C=C\CC1C2CCC(O2)C1CNNC(=O)Nc1ccccc1 (centres undefined) |  | inconclusive: 37.7 µM [inhibitor, partial curve, poor fit] |
| O=C1S/C(=C/c2ccc(N3CCOCC3)o2)C(=O)N1Cc1ccc(F)cc1 |  | inconclusive: 100 µM [inhibitor, partial curve, poor fit] |
| CC(=O)Nc1c([N+](=O)[O-])cc2[nH]c(=O)[nH]c2c1[N+](=O)[O-] |  | inconclusive: 44.7 µM [inhibitor, partial curve, poor fit] |
| Cc1ccc(CN2CCN(CC(=O)N=Nc3c(O)[nH]c4ccccc34)CC2)cc1 | inactive: -10.9% |  |
| COc1ccc(-c2nnc3ccc(SCC(=O)N4CCCCC4)nn23)cc1OC |  | inconclusive: 100 µM [inhibitor, single point] |
| CCOC(=O)C1=C(C)N2C(=C(C#N)[C@@H]1c1ccc(C(=O)OC)cc1)SC[C@@]2(O)C(C)(C)C |  | inconclusive: 79.4 µM [inhibitor, partial curve, poor fit] |
| CC(C)[C@H](NS(=O)(=O)c1ccc2c(c1)OCCO2)C(=O)OCC(=O)Nc1cc(Cl)ccc1Cl |  | inconclusive: 50.1 µM [inhibitor, partial curve, poor fit] |
| O=C1OCCN1C(=O)[C@H]1[C@H](c2ccccc2)C(c2ccc(F)cc2)=NN1c1ccc(Br)cc1 | inactive: 4.72% |  |
| O=C(CCCc1ccccc1)Nc1ccc(Br)cc1F |  | inconclusive: 50.1 µM [inhibitor, partial curve, poor fit] |
| CCn1c2ccccc2c2cc(NC(=O)c3ccc(Br)o3)ccc21 |  | inconclusive: 56.2 µM [inhibitor, partial curve, poor fit] |
| COc1ccc(Cn2nnnc2C(c2cc3ccc(OC)cc3[nH]c2=O)N2CCC(C)CC2)cc1 (centres undefined) |  | inconclusive: 89.1 µM [inhibitor, single point] |
| CCOC(=O)c1cc(C(=O)Nc2sc3c(c2C#N)CCCC3)nn1C |  | inconclusive: 56.2 µM [inhibitor, partial curve, poor fit] |
| Cc1ccc(C(=S)N2CCN(Cc3ccccc3)CC2)s1 |  | inconclusive: 10 µM [inhibitor, full curve, poor fit] |
| Cn1c(=O)c2[nH]c(CN(Cc3ccccc3)Cc3ccccc3)nc2n(C)c1=O |  | inconclusive: 70.8 µM [inhibitor, single point] |
| NC(=O)CC(CC(=O)OCc1ccccc1)c1ccccc1 (centres undefined) | inactive: -10.8% |  |

| Structure (SMILES) | activity change, negative = inhibition | Potency |
| --- | --- | --- |
| CSc1nnc(-c2cccs2)n1C |  | inconclusive: 79.4 µM [inhibitor, partial curve, poor fit] |
| N#Cc1c(Nc2ccccc2C(F)(F)F)s[nH]c1=O |  | inconclusive: 20 µM [inhibitor, full curve, poor fit] |
| Cc1ccc(-n2cc(C(C)(C)C)[nH]c2=S)cc1 |  | inconclusive: 100 µM [inhibitor, partial curve, poor fit] |
| COCCn1c(=NC(=O)CCS(=O)(=O)c2ccccc2)sc2cc(C)ccc21 |  | inconclusive: 89.1 µM [inhibitor, partial curve, poor fit] |
| Cc1ccc(/C=N/NC(=O)c2cc3ccccc3cc2O)o1 |  | inconclusive: 100 µM [inhibitor, partial curve, poor fit] |
| Cc1ccc(S(=O)(=O)Nc2ccc(N3CCN(C)CC3)nc2)cc1 | inactive: -12.1% |  |
| CCOc1cc(C)c(Cl)cc1S(=O)(=O)N1CCCC1 | inactive: 47.4% |  |
| Cc1cc2cc(CNC(=O)c3ccc(Br)o3)ccc2n1C |  | inconclusive: 31.6 µM [inhibitor, full curve, poor fit] |
| c1ccc(SSc2ccccn2)nc1 |  | inconclusive: 56.2 µM [inhibitor, partial curve, poor fit] |
| C/C=C\C=C/C(=O)Nc1cccc(C2=NOC3(C2)C[C@@H](C(N)=O)N(C(=O)COc2ccc(Cl)cc2)C3)c1 (some centres undefined) |  | inconclusive: 50.1 µM [inhibitor, partial curve, poor fit] |
| O=S(=O)(c1ccc(Br)cc1)c1nnn2c1nc(NCc1ccc3c(c1)OCO3)c1sccc12 |  | inconclusive: 44.7 µM [inhibitor, partial curve, poor fit] |
| CCCOc1ccc(CNC(=O)CCCn2nc(C)c3sc4ccccc4c3c2=O)cc1 |  | inconclusive: 70.8 µM [inhibitor, partial curve, poor fit] |
| COc1ccc(CCN2C(=O)CC(Cc3ccc(C)cc3)C2=O)cc1OC (centres undefined) |  | inconclusive: 28.2 µM [inhibitor, full curve, poor fit] |
| COC(=O)c1sc(=S)sc1C(=O)OC |  | inconclusive: 28.2 µM [inhibitor, full curve, poor fit] |
| O=C(COC(=O)c1ccc(F)cc1)Nc1ccc2c(c1)OCO2 |  | inconclusive: 17.8 µM [inhibitor, full curve, poor fit] |
| Cc1cc(C)c(S(=O)(=O)N2CCC(N3CCN(Cc4ccccc4)C(=O)C3=O)CC2)c(C)c1 | inactive: 14.5% |  |
| Cc1ccc(CCNC(=O)c2cc3n(n2)CCCN(Cc2ccc(C)cc2)C3=O)cc1 | inactive: 17.8% |  |
| COc1cccc(CN2CCC(N(CCc3ccccc3)Cc3ccccc3)CC2)c1OC | inactive: -17.4% |  |
| CC(C)(C)c1nnc(NC(=O)Cc2ccc(Br)cc2)s1 |  | inconclusive: 50.1 µM [inhibitor, partial curve, poor fit] |
| CC(=O)Nc1cccc(/C(C)=N\NC(=O)c2ccc(Cn3nc([N+](=O)[O-])c(Cl)c3C)o2)c1 |  | inconclusive: 79.4 µM [inhibitor, partial curve, poor fit] |
